Results from publication PMC6977477.
No constants are given. Whether binding was seen depends on the method and setting. Some binding calls cover weakened binding; strength is not graded here.

T1: basic HELIX-LOOP-HELIX 92 (Arabidopsis thaliana (cDNA from Col-0 seedlings)) (UniProt Q9FIX5)
T1 sequence: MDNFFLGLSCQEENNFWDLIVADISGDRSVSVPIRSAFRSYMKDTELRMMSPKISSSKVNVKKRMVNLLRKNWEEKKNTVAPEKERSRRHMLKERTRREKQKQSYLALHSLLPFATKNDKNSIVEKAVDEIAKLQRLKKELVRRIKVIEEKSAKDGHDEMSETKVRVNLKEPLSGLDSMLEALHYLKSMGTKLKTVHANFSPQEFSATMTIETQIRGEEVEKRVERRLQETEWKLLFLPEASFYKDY

T2: PSEUDO RESPONSE REGULATOR 5 (Arabidopsis thaliana (cDNA from Col-0 seedlings)) (UniProt Q6LA42)
T2 sequence: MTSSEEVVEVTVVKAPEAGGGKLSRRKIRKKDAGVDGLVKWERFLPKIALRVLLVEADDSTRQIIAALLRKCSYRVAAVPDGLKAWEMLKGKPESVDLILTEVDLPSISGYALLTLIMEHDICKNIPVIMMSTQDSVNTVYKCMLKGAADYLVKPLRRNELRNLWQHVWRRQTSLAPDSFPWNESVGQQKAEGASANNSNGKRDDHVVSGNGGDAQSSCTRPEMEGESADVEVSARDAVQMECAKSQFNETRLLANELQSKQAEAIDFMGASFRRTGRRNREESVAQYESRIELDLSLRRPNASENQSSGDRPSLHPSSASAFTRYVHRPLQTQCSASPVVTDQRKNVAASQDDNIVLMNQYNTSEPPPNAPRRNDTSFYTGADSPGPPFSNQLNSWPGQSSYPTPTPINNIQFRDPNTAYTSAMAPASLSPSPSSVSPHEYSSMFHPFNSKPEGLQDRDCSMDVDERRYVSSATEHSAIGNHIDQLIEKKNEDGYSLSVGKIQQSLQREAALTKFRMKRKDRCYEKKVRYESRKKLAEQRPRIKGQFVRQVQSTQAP

T3: LIGHT-REGULATED WD1 (Arabidopsis thaliana (cDNA from Col-0 seedlings)) (UniProt Q9LPV9)
T3 sequence: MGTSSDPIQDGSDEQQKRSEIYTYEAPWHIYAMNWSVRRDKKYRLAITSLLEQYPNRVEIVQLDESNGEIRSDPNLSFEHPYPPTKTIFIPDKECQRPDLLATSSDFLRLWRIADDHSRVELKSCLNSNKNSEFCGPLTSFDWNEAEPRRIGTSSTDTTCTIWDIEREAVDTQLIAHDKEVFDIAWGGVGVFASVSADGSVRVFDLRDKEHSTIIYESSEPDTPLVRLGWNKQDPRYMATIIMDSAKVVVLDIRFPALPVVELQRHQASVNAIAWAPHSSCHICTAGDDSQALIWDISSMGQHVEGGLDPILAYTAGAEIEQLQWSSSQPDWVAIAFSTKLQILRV

T4: PSEUDO RESPONSE REGULATOR 9 (Arabidopsis thaliana) (UniProt Q8L500)
T4 sequence: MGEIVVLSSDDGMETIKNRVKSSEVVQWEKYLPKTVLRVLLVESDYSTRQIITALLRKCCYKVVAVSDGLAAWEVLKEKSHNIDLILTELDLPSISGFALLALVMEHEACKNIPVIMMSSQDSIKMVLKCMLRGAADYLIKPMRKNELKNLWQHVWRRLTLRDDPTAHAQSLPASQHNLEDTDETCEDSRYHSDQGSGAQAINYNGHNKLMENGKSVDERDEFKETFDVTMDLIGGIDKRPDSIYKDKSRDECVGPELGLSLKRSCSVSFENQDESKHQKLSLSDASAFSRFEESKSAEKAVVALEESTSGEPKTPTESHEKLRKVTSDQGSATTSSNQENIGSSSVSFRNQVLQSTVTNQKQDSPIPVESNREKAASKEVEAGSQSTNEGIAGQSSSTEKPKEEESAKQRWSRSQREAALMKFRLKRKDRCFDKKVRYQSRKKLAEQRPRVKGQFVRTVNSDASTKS

T5: TIMING OF CAB EXPRESSION 1 (Arabidopsis thaliana (cDNA from Col-0 seedlings)) (UniProt Q9LKL2)
T5 sequence: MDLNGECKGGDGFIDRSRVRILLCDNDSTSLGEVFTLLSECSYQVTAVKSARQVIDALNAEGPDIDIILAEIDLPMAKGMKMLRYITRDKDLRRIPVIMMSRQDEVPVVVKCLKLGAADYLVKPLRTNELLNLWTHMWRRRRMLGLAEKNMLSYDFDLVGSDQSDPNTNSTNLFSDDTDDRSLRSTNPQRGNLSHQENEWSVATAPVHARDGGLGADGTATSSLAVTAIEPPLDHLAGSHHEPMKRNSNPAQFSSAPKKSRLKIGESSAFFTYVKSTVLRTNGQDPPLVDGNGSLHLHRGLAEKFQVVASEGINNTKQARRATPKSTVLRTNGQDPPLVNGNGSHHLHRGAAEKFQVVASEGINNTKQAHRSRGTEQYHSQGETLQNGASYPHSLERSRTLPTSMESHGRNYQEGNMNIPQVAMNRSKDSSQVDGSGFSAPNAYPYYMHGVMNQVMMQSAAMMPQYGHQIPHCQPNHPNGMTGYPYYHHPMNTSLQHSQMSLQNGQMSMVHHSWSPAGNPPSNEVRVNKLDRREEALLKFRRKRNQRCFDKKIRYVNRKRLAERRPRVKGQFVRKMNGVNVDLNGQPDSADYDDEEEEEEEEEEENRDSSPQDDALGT

T6: … TESTA GLABRA 1 (Arabidopsis thaliana) (UniProt Q9XGN1)
T6 sequence: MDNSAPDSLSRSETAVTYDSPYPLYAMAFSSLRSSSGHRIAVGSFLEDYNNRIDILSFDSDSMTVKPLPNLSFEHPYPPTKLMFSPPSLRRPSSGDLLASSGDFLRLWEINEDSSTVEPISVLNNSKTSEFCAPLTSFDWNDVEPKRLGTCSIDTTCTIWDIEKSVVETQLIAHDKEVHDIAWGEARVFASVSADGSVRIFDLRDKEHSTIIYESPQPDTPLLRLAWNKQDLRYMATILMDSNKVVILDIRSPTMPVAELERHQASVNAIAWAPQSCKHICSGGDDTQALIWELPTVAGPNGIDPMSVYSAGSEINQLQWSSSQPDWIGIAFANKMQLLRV

T7: PSEUDO RESPONSE REGULATOR 7 (Arabidopsis thaliana) (UniProt Q93WK5)
T7 sequence: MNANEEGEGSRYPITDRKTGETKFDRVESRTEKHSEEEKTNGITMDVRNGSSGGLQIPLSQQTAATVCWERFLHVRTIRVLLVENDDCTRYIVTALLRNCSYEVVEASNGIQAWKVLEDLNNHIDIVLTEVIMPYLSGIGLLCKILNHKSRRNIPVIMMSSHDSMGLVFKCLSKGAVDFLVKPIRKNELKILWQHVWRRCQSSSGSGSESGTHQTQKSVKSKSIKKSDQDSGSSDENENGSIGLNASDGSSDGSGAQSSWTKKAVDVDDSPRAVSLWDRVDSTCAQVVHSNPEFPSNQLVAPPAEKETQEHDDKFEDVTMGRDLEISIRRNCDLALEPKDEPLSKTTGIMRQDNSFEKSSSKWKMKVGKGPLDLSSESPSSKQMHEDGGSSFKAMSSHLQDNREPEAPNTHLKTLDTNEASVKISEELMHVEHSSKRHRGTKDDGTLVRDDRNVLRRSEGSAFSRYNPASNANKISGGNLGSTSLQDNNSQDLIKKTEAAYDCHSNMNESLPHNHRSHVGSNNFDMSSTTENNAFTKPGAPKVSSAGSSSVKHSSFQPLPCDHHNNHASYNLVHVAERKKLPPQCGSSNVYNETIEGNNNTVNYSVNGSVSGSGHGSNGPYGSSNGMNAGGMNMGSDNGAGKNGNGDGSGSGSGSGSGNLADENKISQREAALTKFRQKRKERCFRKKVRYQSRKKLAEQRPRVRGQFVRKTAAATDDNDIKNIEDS

T8: LIGHT-REGULATED WD2 (Arabidopsis thaliana (cDNA from Col-0 seedlings)) (UniProt Q38960)
T8 sequence: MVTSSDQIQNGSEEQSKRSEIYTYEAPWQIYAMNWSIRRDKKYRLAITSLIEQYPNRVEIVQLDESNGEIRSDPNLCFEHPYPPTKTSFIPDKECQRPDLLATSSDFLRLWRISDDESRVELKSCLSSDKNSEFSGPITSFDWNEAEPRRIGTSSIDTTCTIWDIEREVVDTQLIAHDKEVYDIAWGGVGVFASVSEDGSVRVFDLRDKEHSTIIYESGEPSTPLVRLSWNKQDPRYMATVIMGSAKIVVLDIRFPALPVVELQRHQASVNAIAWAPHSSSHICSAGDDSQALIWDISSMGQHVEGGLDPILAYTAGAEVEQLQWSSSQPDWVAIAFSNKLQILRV

B1: … TESTA GLABRA 1 (protein, UniProt Q9XGN1 1-341)
chain: T6 sequence
B2: basic HELIX-LOOP-HELIX 92 (protein, UniProt Q9FIX5 1-247)
chain: T1 sequence
B3: PSEUDO RESPONSE REGULATOR 9 (protein, UniProt Q8L500 1-468)
chain: T4 sequence

Tests used:
Assay in all cases: two-hybrid; GAL4 system, co-transformation of pAS2.1-attR/pACT-attR (or TTG1-pcACT2) vector combinations; colonies on SD-LWH with 3, 5, 10, 15, 20, 30 mM 3-AT, SD-LW as control; scanned after three and seven days; at least three replicates
[1] = molecular target: T1, basic HELIX-LOOP-HELIX 92 (Arabidopsis thaliana (cDNA from Col-0 seedlings))
[2] = molecular target: T2, PSEUDO RESPONSE REGULATOR 5 (Arabidopsis thaliana (cDNA from Col-0 seedlings))
[3] = molecular target: T3, LIGHT-REGULATED WD1 (Arabidopsis thaliana (cDNA from Col-0 seedlings))
[4] = molecular target: T4, PSEUDO RESPONSE REGULATOR 9 (Arabidopsis thaliana)
[5] = molecular target: T5, TIMING OF CAB EXPRESSION 1 (Arabidopsis thaliana (cDNA from Col-0 seedlings))
[6] = molecular target: T6, … TESTA GLABRA 1 (Arabidopsis thaliana)
[7] = molecular target: T7, PSEUDO RESPONSE REGULATOR 7 (Arabidopsis thaliana)
[8] = molecular target: T8, LIGHT-REGULATED WD2 (Arabidopsis thaliana (cDNA from Col-0 seedlings))

binding [1]	binding [2]	binding [3]	binding [4]	binding [5]	binding [6]	binding [7]	binding [8]	Binder
binds	binds	–	–	–	–	–	–	B1
–	no binding	no binding	no binding	no binding	binds	no binding	no binding	B2
–	–	–	–	–	binds	–	–	B3
